Among all 46,000 compounds or so, about 60 (0.1%) were called active. Inconclusive results (about 3%) are left out. Calls follow the shape of the dose curve; as a rule, active = well fitted inhibition curve with a large enough effect; inconclusive = small, poorly fitted or top-dose-only effect; inactive = no such curve, though single readings can be large or run the other way. The list shows a part of the results.
Assay: Primary qHTS assay for Inhibitors of ovarian cancer metastasis using an organotypic tumor microenvironment (TME) model. Also: nearly all actives have a fitted effect of over 65% in size.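 As to activity change, negative = inhibition: plate controls were DMSO wells for no effect and tomatine positive control wells for full effect.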
Details: SKOV3ip1-GFP adhesion/invasion on 3D omental model, fluorescence; series mostly up to 45.8 µM; activity change, negative = inhibition: at the top concentration
Outline: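 Primary human omental fibroblast/mesothelial 3D culture pre-formed 48 h. SKOV3ip1-GFP cells added with compounds (0.36-46 umol/L), incubated 2 h RT/16 h 37 C, fixed; GFP cells quantified at 488/509 nm.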

Activity change, negative = inhibition, inactive:
Cc1ccc2nc(-c3ccncc3)c(Nc3ccccc3C)n2c1 -30.1%
CNC(=O)c1cccc(-c2ccc3c(N4CCOC[C@H]4C)nc(N4CCOC[C@H]4C)nc3n2)c1 -16.9%
CCN1CCN(Cc2c(O)ccc3oc(C)c(C(=O)Nc4ccc(OC)c(Cl)c4)c23)CC1 3.84%
CCOC(=O)c1ccccc1NC(=O)CSc1nc2ncccc2o1 16%
Cc1cn(C)c(CC(=O)NCc2ccc(F)cc2)c1C(=O)O 1.85%
CNS(=O)(=O)c1cn(CC(=O)N2CCN(c3ccc(OC)cc3)CC2)cc1S(=O)(=O)NC 9.75%
O=C(COc1ccccc1)N(Cc1cccnc1)c1nc2ccc(Cl)cc2s1 -8.58%
Cc1cccc(-c2nc3c4ccccc4nc(NCc4ccccc4Cl)n3n2)c1 11.5%
Cc1ccc(C(NC(=O)Cc2cccs2)C(=O)Nc2ccc(C(C)C)cc2)cc1 (stereo not given) 10.1%
CN(Cc1ccccc1)S(=O)(=O)c1ccc(F)c(C(=O)Nc2ccccc2C(F)(F)F)c1 0.0942%
Cc1cc(Nc2cccc(C(F)(F)F)c2)ncn1 8.78%
Cc1ccc(NS(=O)(=O)c2ccc3c4c(cccc24)C(=O)N3)c(C)c1 19.3%
CCOC(=O)c1c(NC(=O)C(C)Sc2cn(CCNC(=O)c3ccc(OC)c(OC)c3)c3ccccc23)sc2c1CCC2 (stereo not given) 1.68%
CCOCCCn1c(=N)c(S(=O)(=O)c2ccc(C)cc2)cc2c(=O)n3ccccc3nc21 8.59%
COc1ccc(CC(=O)NC2CC(=O)N(c3ccc4c(c3)OCCO4)C2)cc1 (stereo not given) -0.707%
CCOCCCn1c(=N)c(C(=O)NCc2ccco2)cc2c(=O)n3ccccc3nc21 -17.3%
CCN1CCN(Cc2c(O)ccc3c(=O)c(Oc4ccccc4Cl)c(C(F)(F)F)oc23)CC1 14.9%
CCOC(=O)c1c(C)oc2nc(C)nc(NCc3ccc(C)cc3)c12 2.69%
O=C(CSc1nncn2c1cc1sccc12)Nc1ccccc1C(F)(F)F -3.28%
Cc1c(NC(=O)c2cc(-c3cccc(Cl)c3)on2)c(=O)n(-c2ccccc2)n1C 4.23%
COc1ccc2nc3sc(C(=O)Nc4cc(Cl)c(OC)cc4OC)cc3cc2c1 0.395%
Cc1ccccc1C(=O)NCC(c1cccnc1)N1CCc2ccccc21 (stereo not given) 1.7%
COc1ccc(N(C(=O)COc2c(C)cccc2C)S(=O)(=O)c2ccc(Cl)cc2)cc1 3.58%
Cc1cccc(N2CCN(S(=O)(=O)c3ccc4oc(=O)c5ncn(C)c5c4c3)CC2C)c1 (stereo not given) 1.41%
COC(=O)c1ccccc1NC(=O)c1cc2nc(-c3ccccc3)cc(-c3ccccc3)n2n1 -0.437%
COc1cc(NC(=O)CSc2nc(C)c(C(=O)Nc3ccccc3)c(-c3ccc(OC)c(OC)c3)c2C#N)c(OC)cc1Cl 13.4%
O=C1CC(=O)Nc2cc(S(=O)(=O)N3CCOc4ccccc43)ccc2N1 -3.52%
Cc1ccc(Cl)cc1N1CCN(CCCNc2ncnc3onc(-c4ccc(F)cc4)c23)CC1 -4.21%
Cc1ccc(-c2nnc(Nc3ccc(O)cc3)c3ccccc23)cc1S(=O)(=O)NCc1nc2ccccc2[nH]1 15.9%
COc1cccc(N2CCN(C(=O)c3c(C)oc4ncnc(N5CCCCC5)c34)CC2)c1 0.652%
O=C(CCNS(=O)(=O)c1ccc2c(c1)CCN2C(=O)C1CC1)N1CCN(c2ccccc2F)CC1 -2.27%
CCOc1ccc(CNC(=O)c2cnc3sc(N(CC)CC)nn3c2=O)cc1OC 6.23%
O=C(Cn1c(=O)n(-c2ccccc2Cl)c(=O)c2sc3ccccc3c21)N1CCCC1 -4.92%
CCCn1c(CCC(=O)Nc2cc(Cl)c(OC)cc2OC)nc2cccnc21 1.54%
O=C(CCSCc1ccccc1Cl)N1CCN(c2cccc(Cl)c2)CC1 0.159%
CC(=O)OC(COc1ccccc1)Cn1cnc2cc(C)c(C)cc21 (stereo not given) 0.597%
COc1ccc(-n2ccn(Cc3ccccc3Cl)c(=O)c2=O)cc1OC 7.97%
COc1cc(CNc2ccc3[nH]c(=O)[nH]c3c2)ccc1OCc1ccccc1F -2.17%
CCN(C(=O)CSc1nc2ccccc2n1CC(=O)Nc1ccccc1C)c1ccccc1 2.23%
Cc1ccc(NC(=O)CSc2nc3nccnc3c(=O)n2CCc2c[nH]c3ccccc23)cc1 -1.33%
Nc1cccc2c1CN(C1CCC(=O)NC1=O)C2=O (stereo not given) -1.27% [at 92.2 µM]
O=C1NC(=O)C(c2cnc3ccccn23)=C1c1cn2c3c(cccc13)CN(C(=O)N1CCOCC1)CC2 -12.1%

outcome, inactive:
Cc1cc(C)cc(NC(=O)CN2C(=O)COc3ccc(S(=O)(=O)Nc4ccccc4)cc32)c1
COc1ccc2c(c1)c1c(c(=O)n(-c3cccc(C)c3)c(=O)n1CC(=O)Nc1c(C)cc(C)cc1C)n2C
CCc1cccc(NC(=O)CNS(=O)(=O)c2ccc3nc(C)sc3c2)c1
CCn1cc(C(=O)NCc2ccccc2)c(=O)c2cc(S(=O)(=O)N3CCCCC3)ccc21
CC(C)NC(=O)c1ccc(Cn2c(=O)c3cccn3c3cccnc32)cc1
COCCCNc1nc2c(-c3ccccc3)nnn2c2ccccc12
O=C(NCCC1=CCCCC1)c1ccc2c(c1)N(Cc1ccc(F)cc1)C(=O)c1ccccc1S2(=O)=O
CCOC(=O)c1c(C)sc(-c2c(-c3ccc4c(c3)OCCO4)[nH]c3c2c(=O)[nH]c(=O)n3C)c1O
COc1ccc(NC(=O)C2(c3cccs3)CCOCC2)cc1Cl
CC(C)CN(CCCNC(=O)CN1C(=O)COc2ccc(S(=O)(=O)N3CCCCCC3)cc21)CC(C)C
COc1ccc(N2CC3=C(C2=O)C(c2ccc(Br)cc2)NC(=O)N3C)cc1 (stereo not given)
COc1cccc(-n2c(=O)c3sc4ccccc4c3n(CC(=O)Nc3ccc(F)cc3F)c2=O)c1
CCOc1ccc(S(=O)(=O)N2CCN(c3ccc(Cl)c(Cl)c3)CC2)c2ccccc12
COc1ccccc1CNC(=O)CN1C(=O)CSc2ccc(S(=O)(=O)N(C)C)cc21
CCc1nc2cccnc2n1-c1ccc(CC(=O)Nc2ccc(C)cc2)cc1
CCn1nc(-c2ccccc2)c(-c2ccccc2)c(C(=O)Nc2nc(C)c(C(=O)N(C)C)s2)c1=O
Cc1ccc(C)c(NC(=O)CSc2ncc3c(n2)-c2ccc(Cl)cc2N(C)S3(=O)=O)c1
COc1ccc(NC(=O)CC2C(=O)N(c3ccc(C)cc3)C(=O)N2C2CCCCC2)cc1 (stereo not given)

From PubChem BioAssay AID1963576 (National Center for Advancing Translational Sciences (NCATS), 2024)
